Test results: the supplement of paper PMC4604168 (melanoma cell lines)
The other results are listed elsewhere or left out. Single values are uncertain, as repeats are few or missing.

System: WM1745
Assay: cell count relative to DMSO control; melanoma cells; higher = more viable cells
Conditions: library dose: low library concentration; 72 h
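Note: cell number obtained by counting DAPI-stained nuclei in high-throughput microscope images with image analysis software, screen run in 1,536-well plates.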

SMILES	cell count [%]
O=C(CCCCCCC(=O)Nc1ccccc1)NO [vorinostat] + O=C(O)c1ccc(-c2c[nH]c3ncc(-c4ccccc4)cc23)cc1C1CCCC1 [GSK650394] (first compound 0.08 µM, partner dose 0.16 µM)	112
COCC[n+]1c2c(n(Cc3cnccn3)c1C)C(=O)c1ccccc1C2=O + O=C(Nc1cccc(Cl)c1)Nc1ncc(CCNc2ncnc3ccsc23)s1 [SNS314] (first compound 0.0004 µM, partner dose 0.0008 µM)	109
OCc1c[nH]c2ccccc12 [Indole-3-carbinol] + NC(=O)Nc1cc(-c2cccc(F)c2)sc1C(=O)N[C@H]1CCCNC1 [AZD7762] (first compound 0.8 µM, partner dose 0.02 µM)	92.6
OCc1c[nH]c2ccccc12 [Indole-3-carbinol] + O=C(O)C(=O)Nc1sc2c(c1C(=O)O)CCNC2 [TCS401] (first compound 0.8 µM, partner dose 1.66667 µM)	92.2
Clc1ccc(Nc2nnc(Cc3ccncc3)c3ccccc23)cc1 [vatalanib] + NCC(=O)Nc1ccc(-n2nc(C(F)(F)F)cc2-c2ccc3c(ccc4ccccc43)c2)cc1 [OSU03012] (first compound 2 µM, partner dose 1 µM)	93.3

System: WM3526
Assay: as above
Conditions: library dose: low library concentration; 72 h

SMILES	cell count [%]
COCC[n+]1c2c(n(Cc3cnccn3)c1C)C(=O)c1ccccc1C2=O + COc1cc2c(Oc3ccc4[nH]c(C)cc4c3F)ncnc2cc1OCCCN1CCCC1 [cediranib] (first compound 0.0004 µM, partner dose 0.4 µM)	88.6
O=C(CCCCCCC(=O)Nc1ccccc1)NO [vorinostat] + COc1ccc(COc2ccc(Cc3cnc(N)nc3N)cc2OC)cc1 [GW2580] (first compound 0.08 µM, partner dose 1 µM)	104
C#Cc1cccc(Nc2ncnc3cc(OCCOC)c(OCCOC)cc23)c1 [erlotinib] + O=C(O)C(=O)Nc1sc2c(c1C(=O)O)CCNC2 [TCS401] (first compound 0.8 µM, partner dose 1.66667 µM)	86.3
Cn1c(Nc2ccc(C(F)(F)F)cc2)nc2cc(Oc3ccnc(-c4ncc(C(F)(F)F)[nH]4)c3)ccc21 + COC(=O)c1sccc1S(=O)(=O)Nc1ccc(Nc2ccccc2)cc1OC [GSK0660] (first compound 0.08 µM, partner dose 1 µM)	44.7
COCC[n+]1c2c(n(Cc3cnccn3)c1C)C(=O)c1ccccc1C2=O + Nc1cccc2c1CN(C1CCC(=O)NC1=O)C2=O [lenalidomide] (first compound 0.0004 µM, partner dose 1 µM)	95.8
Cn1c(Nc2ccc(C(F)(F)F)cc2)nc2cc(Oc3ccnc(-c4ncc(C(F)(F)F)[nH]4)c3)ccc21 + COCC[n+]1c2c(n(Cc3cnccn3)c1C)C(=O)c1ccccc1C2=O [YM155] (first compound 0.08 µM, partner dose 0.0004 µM)	67.6
O=C(CCCCCCC(=O)Nc1ccccc1)NO [vorinostat] + NCC(=O)Nc1ccc(-n2nc(C(F)(F)F)cc2-c2ccc3c(ccc4ccccc43)c2)cc1 [OSU03012] (first compound 0.08 µM, partner dose 1 µM)	44.2
Cn1c(Nc2ccc(C(F)(F)F)cc2)nc2cc(Oc3ccnc(-c4ncc(C(F)(F)F)[nH]4)c3)ccc21 + O=C(CCCCCCC(=O)Nc1ccccc1)NO [vorinostat] (first compound 0.08 µM, partner dose 0.08 µM)	52.3
Nc1cccc2c1CN(C1CCC(=O)NC1=O)C2=O (centres undefined) [lenalidomide] + CN(NC(=O)CC(=O)NN(C)C(=S)c1ccccc1)C(=S)c1ccccc1 [STA4783] (first compound 1 µM, partner dose 0.006 µM)	90.8
C#Cc1cccc(Nc2ncnc3cc(OCCOC)c(OCCOC)cc23)c1 [erlotinib] + COc1cc2ncnc(Nc3ccc(Oc4ccccc4)cc3)c2cc1OC [SrcI1] (first compound 0.8 µM, partner dose 2 µM)	84.5
Cn1c(Nc2ccc(C(F)(F)F)cc2)nc2cc(Oc3ccnc(-c4ncc(C(F)(F)F)[nH]4)c3)ccc21 + Cc1ccc(NC(=O)c2cccc(N(C)C)c2)cc1NC(=O)c1ccc(O)cc1 [ZM336372] (first compound 0.08 µM, partner dose 2 µM)	43.1
Clc1ccc(Nc2nnc(Cc3ccncc3)c3ccccc23)cc1 [vatalanib] + CCCCCCCCCCCC1=C(O)C(=O)C=C(O)C1=O [Embelin] (first compound 2 µM, partner dose 1.2 µM)	96.1
Nc1cccc2c1CN(C1CCC(=O)NC1=O)C2=O (centres undefined) [lenalidomide] + O=C(CCCCCCC(=O)Nc1ccccc1)NO [vorinostat] (first compound 1 µM, partner dose 0.08 µM)	80.4
O=C(CCCCCCC(=O)Nc1ccccc1)NO [vorinostat] + O=S(=O)(c1ccccc1)N(CC(F)(F)F)c1ccc(C(O)(C(F)(F)F)C(F)(F)F)cc1 [T0901317] (first compound 0.08 µM, partner dose 1.4 µM)	96.4
OCc1c[nH]c2ccccc12 [Indole-3-carbinol] + COCC[n+]1c2c(n(Cc3cnccn3)c1C)C(=O)c1ccccc1C2=O [YM155] (first compound 0.8 µM, partner dose 0.0004 µM)	85.2
COCC[n+]1c2c(n(Cc3cnccn3)c1C)C(=O)c1ccccc1C2=O + C=CCn1c(=O)c2cnc(Nc3ccc(N4CCN(C)CC4)cc3)nc2n1-c1cccc(C(C)(C)O)n1 [MK1775] (first compound 0.0004 µM, partner dose 0.02 µM)	73.2
C#Cc1cccc(Nc2ncnc3cc(OCCOC)c(OCCOC)cc23)c1 [erlotinib] + COCC[n+]1c2c(n(Cc3cnccn3)c1C)C(=O)c1ccccc1C2=O [YM155] (first compound 0.8 µM, partner dose 0.0004 µM)	81.8
C#Cc1cccc(Nc2ncnc3cc(OCCOC)c(OCCOC)cc23)c1 [erlotinib] + Cc1nc(Nc2ncc(C(=O)Nc3c(C)cccc3Cl)s2)cc(N2CCN(CCO)CC2)n1 [dasatanib] (first compound 0.8 µM, partner dose 0.004 µM)	97.1
Clc1ccc(Nc2nnc(Cc3ccncc3)c3ccccc23)cc1 [vatalanib] + CN(C)S(=O)(=O)c1ccc2c(c1)/C(=C/c1cc3c([nH]1)CCCC3)C(=O)N2 [SU6656] (first compound 2 µM, partner dose 0.4 µM)	97.2
Cn1c(Nc2ccc(C(F)(F)F)cc2)nc2cc(Oc3ccnc(-c4ncc(C(F)(F)F)[nH]4)c3)ccc21 + C[C@@H]1CCN(C(=O)CC#N)C[C@@H]1N(C)c1ncnc2[nH]ccc12 [CP690550] (first compound 0.08 µM, partner dose 1 µM)	58.9
Cn1c(Nc2ccc(C(F)(F)F)cc2)nc2cc(Oc3ccnc(-c4ncc(C(F)(F)F)[nH]4)c3)ccc21 + Nc1cccc2c1CN(C1CCC(=O)NC1=O)C2=O [lenalidomide] (first compound 0.08 µM, partner dose 1 µM)	49.7
Nc1cccc2c1CN(C1CCC(=O)NC1=O)C2=O (centres undefined) [lenalidomide] + O=S(=O)(c1ccccc1)N(CC(F)(F)F)c1ccc(C(O)(C(F)(F)F)C(F)(F)F)cc1 [T0901317] (first compound 1 µM, partner dose 1.4 µM)	106
COCC[n+]1c2c(n(Cc3cnccn3)c1C)C(=O)c1ccccc1C2=O + O=S(=O)(c1ccccc1)N(CC(F)(F)F)c1ccc(C(O)(C(F)(F)F)C(F)(F)F)cc1 [T0901317] (first compound 0.0004 µM, partner dose 1.4 µM)	101
Nc1cccc2c1CN(C1CCC(=O)NC1=O)C2=O (centres undefined) [lenalidomide] + NCC(=O)Nc1ccc(-n2nc(C(F)(F)F)cc2-c2ccc3c(ccc4ccccc43)c2)cc1 [OSU03012] (first compound 1 µM, partner dose 1 µM)	47.7
Clc1ccc(Nc2nnc(Cc3ccncc3)c3ccccc23)cc1 [vatalanib] + CN(NC(=O)CC(=O)NN(C)C(=S)c1ccccc1)C(=S)c1ccccc1 [STA4783] (first compound 2 µM, partner dose 0.006 µM)	100
Clc1ccc(Nc2nnc(Cc3ccncc3)c3ccccc23)cc1 [vatalanib] + C[C@@H]1CCN(C(=O)CC#N)C[C@@H]1N(C)c1ncnc2[nH]ccc12 [CP690550] (first compound 2 µM, partner dose 1 µM)	104
Cn1c(Nc2ccc(C(F)(F)F)cc2)nc2cc(Oc3ccnc(-c4ncc(C(F)(F)F)[nH]4)c3)ccc21 + OCCn1cc(-c2cnc3nnn(Cc4ccc5ncccc5c4)c3n2)cn1 [PF04217903] (first compound 0.08 µM, partner dose 1 µM)	44.9
Cn1c(Nc2ccc(C(F)(F)F)cc2)nc2cc(Oc3ccnc(-c4ncc(C(F)(F)F)[nH]4)c3)ccc21 + O=C(Nc1ccccc1)c1cc([N+](=O)[O-])ccc1Cl [GW9662] (first compound 0.08 µM, partner dose 2 µM)	51.6
OCc1c[nH]c2ccccc12 [Indole-3-carbinol] + C=CCn1c(=O)c2cnc(Nc3ccc(N4CCN(C)CC4)cc3)nc2n1-c1cccc(C(C)(C)O)n1 [MK1775] (first compound 0.8 µM, partner dose 0.02 µM)	67.7
